# The supplement of paper PMC12340641
# The full ranking holds about 1,000 compounds; the median of “relative growth recovery (pomalidomide 10 uM = 100%, DMSO = 0%)” is about -1.6, and the highest 2% start at about 21. The list shows a part of the results.
# Tested on: HEK293FT dCK*-IKZF1
# Experiment: relative growth recovery (pomalidomide 10 uM = 100%, DMSO = 0%); higher = more growth rescue (IKZF1 fusion degradation)
# Details: compound concentration: 5 uM; AraC concentration: 0.3 uM; overnight pretreatment + 4 days AraC
# Procedure: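 Growth recovery screen of the molecular-glue-like (Specs) library. HEK293FT cells expressing a dCK*-IKZF1 fusion (primary) or dCK* alone (counter) were pretreated overnight with compound at 5 uM, then given 0.3 uM AraC for 4 days. Hoechst nuclei were counted by imaging. Primary: normalised to pomalidomide (100%) and DMSO (0%), mean of 2 replicates. Counter: normalised to no-AraC (100%) and AraC+DMSO (0%), single replicate.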
row,SMILES,relative growth recovery
1,O=C(O)CN1CCN(c2cccc3c2C(=O)N(C2CCC(=O)NC2=O)C3=O)CC1 (stereo not drawn),0.995%
2,Cc1cc(C)nc(NS(=O)(=O)c2ccc(NC(=O)CCC(=O)O)cc2)n1,-6.62%
3,Cc1csc(Nc2cccc(C3CN(C(=O)CCC4CCCC4)CCO3)n2)n1 (stereo not drawn),21%
4,Cc1cccc(OCC(=O)Nc2ccc(S(=O)(=O)Nc3nc(C)cc(C)n3)cc2)c1,-6.49%
5,Cc1cc(NS(=O)(=O)c2ccc(NC(=O)CCc3ccccc3)cc2)nc(C)n1,-5.83%
6,O=C(c1cccc2ncccc12)N1CCOC(c2cccc(Nc3nccs3)n2)C1 (stereo not drawn),-7.12%
7,COc1cc(NS(=O)(=O)c2ccc(N)cc2)nc(OC)n1,-2.23%
8,CCN(CC)c1ccc2cc(C(=O)Nc3ccc(S(=O)(=O)Nc4nc(C)cc(C)n4)cc3)c(=O)oc2c1,11.4%
9,O=C(COc1ccccc1)Nc1ccc(S(=O)(=O)Nc2ccccn2)cc1,-0.54%
10,O=C(Nc1ccc(S(=O)(=O)Nc2ccccn2)cc1)c1ccco1,-4.95%
11,Cc1csc(Nc2cccc(C3CCCN3C(=O)c3n[nH]c4c3CCCCCC4)n2)n1 (stereo not drawn),-1.55%
12,O=C(C1CCCCN1)N1CCC(c2cccc(Nc3ncc(-c4ccccc4)s3)n2)CC1 (stereo not drawn),-3.42%
13,Cc1nc(Nc2cccc(C3CCCN3C(=O)CCCc3ccc(F)cc3)n2)sc1C (stereo not drawn),2.51%
14,O=C(Cc1ccc(F)cc1)N1CCC(c2cccc(Nc3nccs3)n2)CC1,-18.6%
15,CC(C)C(=O)Nc1ccc(S(=O)(=O)Nc2ccccn2)cc1,-1.96%
16,CC(=O)Nc1ccc(S(=O)(=O)Nc2nccc(C)n2)cc1,-0.055%
17,CCN1CC(C(=O)N2CCC(c3cccc(Nc4ncc(C)s4)n3)CC2)CC1=O (stereo not drawn),-0.005%
18,Cc1ccnc(NS(=O)(=O)c2ccc(NC(=O)Cc3cccs3)cc2)n1,3.77%
19,O=C(CCc1ccccc1)Nc1ccc(S(=O)(=O)Nc2ccccn2)cc1,-4.47%
20,COc1cc(NS(=O)(=O)c2ccc(NC(=S)NC(=O)/C=C/c3ccco3)cc2)nc(OC)n1,-0.65%
21,Cc1cnc(Nc2cccc(C3CCN(C(=O)CCn4ncc5ccccc54)CC3)n2)s1,-1.66%
22,CC(C)(C)CC(=O)Nc1ccc(S(=O)(=O)Nc2ncccn2)cc1,-2.79%
23,O=C(CN1CCC(c2cccc(Nc3nccs3)n2)CC1)Nc1ccc(F)cc1,9.19%
24,CC(C)c1cccc(OCC(=O)Nc2ccc(S(=O)(=O)Nc3ccccn3)cc2)c1,-4.19%

row,SMILES,relative growth recovery
1,O=[N+]([O-])c1ccc(S(=O)(=O)Nc2ccc(S(=O)(=O)Nc3ncccn3)cc2)cc1,-2.34%
2,O=C(/C=C/c1ccc(Cl)cc1)Nc1ccc(S(=O)(=O)Nc2ncccn2)cc1,-16.4%
3,Cc1cnc(Nc2cccc(C3CCN(C(=O)[C@H]4CCCC[C@H]4NC(=O)OC(C)(C)C)CC3)n2)s1,5.29%
4,Cc1cnc(Nc2cccc(C3CCN(C(=O)CC4CCCCC4)CC3)n2)s1,-13.5%
5,O=C(CS(=O)(=O)c1ccccc1)Nc1ccc(S(=O)(=O)Nc2ncccn2)cc1,-4.8%
6,COc1cc(NS(=O)(=O)c2ccc(Nc3nc(-c4ccccc4)cs3)cc2)nc(OC)n1,-16.4%
7,Cc1nc(Nc2cccc(C3CCCN3C(=O)CN3CCc4ccccc4C3)n2)sc1C (stereo not drawn),3.27%
8,O=C(Nc1ccc(S(=O)(=O)Nc2ncccn2)cc1)Oc1ccccc1,3.04%
9,Cc1cc(C)nc(NS(=O)(=O)c2ccc(NC(=O)c3oc4ccccc4c3C)cc2)n1,-2.64%
10,COc1cccc(C(=O)N2CCOC(c3cccc(Nc4nc(C)c(C)s4)n3)C2)c1 (stereo not drawn),10.9%
11,Cc1cnc(Nc2cccc(CC3CCN(C(=O)C4CCCCC4)CC3)n2)s1,4.21%
12,Cc1cnc(Nc2cccc(C3CN(C(=O)CCc4ccccc4)CCO3)n2)s1 (stereo not drawn),3.24%
13,COc1ccc(/C=C/C(=O)Nc2ccc(S(=O)(=O)Nc3cc(C)nc(C)n3)cc2)cc1,-2.46%
14,Cc1nc(Nc2cccc(C3CCCN3C(=O)CCCN3C(=O)CNC3=O)n2)sc1C (stereo not drawn),3.93%
15,O=C(O)CCOCCNc1cccc2c1C(=O)N(C1CCC(=O)NC1=O)C2=O (stereo not drawn),-5.19%
16,COc1ccc(OCCCC(=O)Nc2ccc(S(=O)(=O)Nc3cc(C)nc(C)n3)cc2)cc1,1.14%
17,Cc1csc(Nc2cccc(C3CCN(CC(=O)N4CCC(C(N)=O)CC4)CC3)n2)n1,5.36%
18,COc1ccc(/C=C/C(=O)NC(=S)Nc2ccc(S(=O)(=O)Nc3nccnc3OC)cc2)cc1OC,-18%
19,CC(=O)N1CCCC1CCc1ccc(Nc2ncc(-c3ccc(F)cc3)s2)nc1 (stereo not drawn),-7.83%
20,O=[N+]([O-])c1ccc(S(=O)(=O)Nc2ncccn2)cc1,-1.17%
21,Cc1cnc(Nc2cccc(C3CN(C(=O)CN(C(=O)CC(C)C)c4ccccc4)CCO3)n2)s1 (stereo not drawn),1.34%
22,CCCC(=O)Nc1ccc(S(=O)(=O)Nc2cc(C)nc(C)n2)cc1,-1.16%
23,CCC(C(=O)Nc1ccc(S(=O)(=O)Nc2ncccn2)cc1)c1ccccc1 (stereo not drawn),-4.23%
24,O=C(CN1CCC(c2cccc(Nc3nccs3)n2)CC1)N1CCCc2ccccc21,-1.5%
